From PubChem BioAssay AID1645887 (National Center for Advancing Translational Sciences (NCATS), 2021)
“And” between values parts separate entries of the source, which are not always exact repeats. Equal entries are not always repeated. Out of some 16,000 compounds screened, about 40 (0.2%) were called active. Another 1% or so got no clear call; they are omitted. The call rests on the fitted dose curve; in most records, active means well fitted activation curve with a large enough effect; inconclusive means small, poorly fitted or top-dose-only effect, or another doubt; inactive means no such curve, though single readings can be large or run the other way. This is one part of the list.

target: Rap guanine nucleotide exchange factor 4 (Homo sapiens) (UniProt Q8WZA2); test: Validation qHTS for agonist of cAMP-regulated guanine nucleotide exchange factor 4 (EPAC2); settings: EPAC2 Rap1B BODIPY-GDP exchange, fluorescence; activation: active compounds read high;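 further: exchange makes BODIPY-GDP fluorescence drop when released from Rap1B; series mostly up to about 150 µM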
Chain of UniProt Q8WZA2 (Q8WZA2 whole entry, looked up): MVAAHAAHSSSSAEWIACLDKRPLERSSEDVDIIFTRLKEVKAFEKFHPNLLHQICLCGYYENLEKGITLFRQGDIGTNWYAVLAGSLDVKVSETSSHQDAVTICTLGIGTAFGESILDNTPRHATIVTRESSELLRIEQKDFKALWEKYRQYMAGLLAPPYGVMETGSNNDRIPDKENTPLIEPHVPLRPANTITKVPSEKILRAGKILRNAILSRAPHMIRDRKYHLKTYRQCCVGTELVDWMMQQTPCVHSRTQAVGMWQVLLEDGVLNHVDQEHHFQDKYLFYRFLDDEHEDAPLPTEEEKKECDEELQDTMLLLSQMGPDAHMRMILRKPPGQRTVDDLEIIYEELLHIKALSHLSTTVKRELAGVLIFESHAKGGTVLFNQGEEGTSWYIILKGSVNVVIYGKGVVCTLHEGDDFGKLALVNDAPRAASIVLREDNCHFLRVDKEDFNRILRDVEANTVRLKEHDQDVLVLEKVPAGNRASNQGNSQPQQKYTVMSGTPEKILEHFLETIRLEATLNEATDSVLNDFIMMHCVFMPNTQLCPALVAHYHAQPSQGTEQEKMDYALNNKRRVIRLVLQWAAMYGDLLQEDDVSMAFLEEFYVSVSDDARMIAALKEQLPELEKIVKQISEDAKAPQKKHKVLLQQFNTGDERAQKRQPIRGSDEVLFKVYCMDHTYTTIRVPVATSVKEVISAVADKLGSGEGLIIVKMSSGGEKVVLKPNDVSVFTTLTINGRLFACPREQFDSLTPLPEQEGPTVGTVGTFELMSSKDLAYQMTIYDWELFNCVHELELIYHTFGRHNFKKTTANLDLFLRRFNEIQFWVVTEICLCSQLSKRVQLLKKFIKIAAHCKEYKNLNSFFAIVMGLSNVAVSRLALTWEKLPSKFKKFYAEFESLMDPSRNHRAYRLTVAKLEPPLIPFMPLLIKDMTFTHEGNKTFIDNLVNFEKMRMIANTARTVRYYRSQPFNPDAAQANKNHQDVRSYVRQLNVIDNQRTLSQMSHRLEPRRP
In short: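 Fluorescent exchange assay: 100 nM EPAC2 with 250 nM RAP1B-BODIPY-GDP and 50 uM GDP; compound added, 5 min at room temperature, then read (ex 480/em 540 nm) every 5 min for 30 min. Normalized to 6.5 mM cAMP agonist control.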
On the % scale 0 is the no-effect control and ±100 the full control effect.

activation, inactive:
COc1ccccc1-c1ccc2ncnc(NCc3cnc(C)cn3)c2c1 -5.51%
CCOC(=O)C(C)(C)Oc1ccc(Cl)cc1 -10.6% and -2.17% and -40.2%
COc1ccc(OC)c(C(=O)N(Cc2cc3cccc(C)c3nc2N2CCC(O)CC2)C2CC2)c1 0.8%
c1cnc2c(c1)ccc1cccnc12 -12.4%
Cc1noc(C)c1-c1nc(Nc2ccc(F)cc2)c2ccccc2n1 -20.8%
CN1CCCC(CC2c3ccccc3Sc3ccccc32)C1 (configuration not stated) -23.6%
Cc1nc2cnc(N3CCN(C)CC3)nc2n(CCC#N)c1=O 2.78%
COc1ccccc1N1CCN(CC(O)COc2cccc3ccccc23)CC1 (configuration not stated) 1.07% and -57%
CCCN(CCC)C[C@@H]1CCCCN1CCNC(=O)N1c2ccccc2C(=O)Nc2cccnc21 -19.5%
CCN1C(=O)NC(c2ccccc2)C1=O (configuration not stated) -11.3%
COc1ccc(CN2CCOc3ccc(CN4CCN(CCO)CC4)cc3C2)c2ccccc12 -3.68%
COc1ccccc1CN1CCC2(CC1)CCN(C(=O)c1cccn1C)CC2 -1.25%
COc1cccc(-c2cncnc2NCCN2CCOCC2)c1 -4.35%
CCCCCCCCCCCCOS(=O)(=O)O -36.3%
COc1ccc(CN2CC[C@H]3C=CC[C@@H](C(=O)Nc4ccccc4)[C@H]3C2=O)cc1OC -4.97% and -9.67%
Cc1cnc(C)c(-c2cccc3c2OC(CNC(=O)/C=C/c2ccc(F)c(F)c2)C3)n1 (configuration not stated) -22.3%
CCCN(CCC)C(=O)C(CCC(=O)O)NC(=O)c1ccccc1 (configuration not stated) -9.04% and -14.5% and -8.28%
O=c1cnc2cnc(Oc3cccc(Cl)c3)nc2n1C[C@H]1CCCO1 6.37%
CCCC[n+]1c(C)ccc2ccccc21 -26.2%
COc1ccc(CN2CC[C@H]3C=CC[C@@H](C(=O)Nc4ccc(Cl)cc4Cl)[C@H]3C2=O)cc1OC -10.4%
COc1ccc2c(c1)N(C[C@H](C)CN(C)C)c1ccccc1S2 0.214%
CCOC(=O)C1CCCN(C(=O)c2cnn(-c3ncc4c(n3)-c3ccccc3CC4)c2C)C1 (configuration not stated) -8.12%
COC(=O)c1ccccc1O -17.4%
Cc1cnc(C)c(-c2cc(F)c3c(c2)CC(CNC(=O)c2cccc(Cn4cccn4)c2)O3)n1 (configuration not stated) -11.3%
CC(COc1ccccc1)NN (configuration not stated) -0.165%
N#Cc1ccc(/C=C2/C=Cc3ccccc32)cc1 -21.8%
COc1ccc(CN2CCCC(n3cc(C(=O)NC4CCCC4)nn3)C2)c2ccccc12 (configuration not stated) 9.62%
Cc1c(C(=O)N2CC3CCC2C3)sc2ncnc(NCCc3c[nH]c4ccccc34)c12 (configuration not stated) -17%
COC(=O)N1CCC2(CC1)CN(C(=O)Nc1ccc(OC)cc1)C2 -17.3%
O=Cc1ccnc2ccccc12 -11.8%
O=C(NC1CC1)[C@@H]1C[C@H](Sc2nc3ccccc3[nH]2)CN1CC1CCCCC1 -2.88%
CC[C@H](CC[C@@H](C)[C@H]1CC[C@H]2[C@@H]3CC=C4C[C@@H](O)CC[C@]4(C)[C@H]3CC[C@]12C)C(C)C -18.6%
Cc1cccc(CNc2cc(-c3cccc(NS(C)(=O)=O)c3)ncn2)c1 -16%
N#CC(c1ccc(Cl)cc1)c1c(Cl)cc(-n2ncc(=O)[nH]c2=O)cc1Cl (configuration not stated) -19.2%
O=c1ccc2ccc(O)c(O)c2o1 -19.2%
O=S(=O)(NCc1ccccc1Br)c1ccccc1Br -19.2%
COc1ccccc1-c1ccc2ncnc(N(C)C)c2c1 -13.8%
OC1(c2cccnc2)CCN(Cc2ccc3c(c2)CN(Cc2ccc(F)c(F)c2)CCO3)CC1 -10.7%
CC(=O)NCCc1c[nH]c2ccc(O)cc12 -9.2% and -3.51% and -13.6%
COc1cc(OC)c(C(=O)CCCN2CCCC2)c(OC)c1 9.91%
CCCc1nc2cccnc2n1C1CCN(C(=O)Cn2nccc2C)CC1 -0.685%
O=C(C[n+]1cccc2cccc(O)c21)c1ccccc1 -0.768%
